From patent US11155596B2, “Polypeptide” (AFFIBODY AB, priority 2016, dated 2021) come the findings set out here.

One assay has as its target T1, hPD-L1 binding to hPD-1 (Homo sapiens, UniProt Q9NZQ7).
T1 construct: 1086-PD-050 (hPD-1)
Put plainly: AlphaLISA blocking assay (Example 7). The following applies: His6-tagged Z variants 250 nM to 4 pM; 8 nM biotinylated hPD-L1; read-out: IC50 AlphaLISA (M), blocking the PD-1/PD-L1 interaction. As to the method: AlphaLISA blocking assay: The potential of Z variants to inhibit binding of PD-L1 to PD-1 was analyzed by AlphaLISA and recordings in an EnSpire multiplate reader 2300 (Perkin Elmer). hPD-1 (human PD-1 Fc-chimera; R&D Systems, cat. no. 1086-PD-050) was immobilized on AlphaLISA Acceptor beads (Perkin Elmer, cat. no. 6772002) according to the manufacturer's recommendations. […] Finally, streptavidin coated Donor beads (Perkin Elmer, cat. no. 6772002) were added to a final concentration of 40 μg/ml and incubated for 30 min. All incubations were performed at RT in the dark. The plate was analyzed in the EnSpire instrument and the IC50 values were calculated using GraphPad Prism 5.
Exception 2: hPD-1-coated Acceptor beads were added to a final concentration of 10 μg/ml and incubated for 50 min.
On the technique in general: Bead proximity is the source of the signal in Alpha formats.

In a further assay the target is hPD-L1 (Homo sapiens, UniProt Q9NZQ7). Briefly: ELISA EC50 analysis (target titration) of primary Z variants. Type of assay: binding. As to conditions: periplasmic Z-ABD fusions captured on anti-ABD antibody; biotinylated hPD-L1 40 nM diluted 1:4 to 32 pM. As to the method: ELISA screening of Z variants: The binding of Z variants to hPD-L1 was analyzed in ELISA assays. Half-area 96-well ELISA plates (Costar, cat. no. 3690) were coated at 4° C. overnight with 2 μg/ml of an anti-ABD goat antibody (produced in-house) diluted in coating buffer (50 mM sodium carbonate, pH 9.6; Sigma, cat. no. C3041). The antibody solution was poured off and the wells were washed in water and blocked with 100 μl of PBSC (PBS supplemented with 0.5% casein; Sigma, cat. no. C8654) for 1 to 3 h at RT. The blocking solution was discarded and 50 μl periplasmic solutions, diluted 1:1 with PBST 0.05%, were added to the wells and incubated for 1.5 to 2.5 h at RT under slow agitation. As a blank control, PBST 0.05% was added instead of a periplasmic sample. The supernatants were poured off and the wells were washed 4 times with PBST 0.05%. Then, 50 μl of biotinylated hPD-L1 at a concentration of 0.32 nM in PBSC was added to each well. The plates were incubated for 1 h at RT followed by washes as described above. Streptavidin conjugated HRP (Thermo Scientific, cat. no. N100) diluted 1:30,000 in PBSC, was added to the wells and the plates were incubated for approximately 1 h. After washing as described above, 50 μl ImmunoPure TMB substrate (Thermo Scientific, cat. no. 34021) was added to the wells and the plates were treated according to the manufacturer's recommendations.
EC50 analysis of Z variants: A selection of PD-L1 binding Z variants was subjected to an analysis of the response against a dilution series of biotinylated hPD-L1 following the procedure described above. The Z variants were diluted 1:1 in PBST 0.05%. Biotinylated hPD-L1 was added at a concentration of 40 nM and diluted stepwise 1:4 down to 32 pM. As a background control, all Z variants were also assayed with no target protein added. Periplasm samples containing the PD-L1 binding Z variant Z13112 (SEQ ID.NO:777) were included on each plate and analyzed as positive control. […] Data were analyzed using GraphPad Prism 5 and non-linear regression, and EC50 values (the half maximal effective concentration) were calculated.
(ELISA stands for enzyme-linked immunosorbent assay.)

Another assay addresses T2, hB7-H4 (Homo sapiens, UniProt Q7Z7D3).
T2 construct: purchased R&D Systems 6576-B7-50
T2 sequence (Q7Z7D3 25-282): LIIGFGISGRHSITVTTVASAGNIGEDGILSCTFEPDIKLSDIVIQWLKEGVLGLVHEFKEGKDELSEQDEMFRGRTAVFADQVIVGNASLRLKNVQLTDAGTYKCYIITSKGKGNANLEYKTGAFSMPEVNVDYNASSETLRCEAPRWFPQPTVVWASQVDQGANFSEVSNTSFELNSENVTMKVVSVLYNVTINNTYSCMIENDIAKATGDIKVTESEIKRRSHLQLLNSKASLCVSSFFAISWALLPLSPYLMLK
Put plainly: Biacore specificity analysis of primary Z variants, hB7-H4. Type of assay: binding. The following applies: for SPR binding against hB7-H4: Z variant concentrations up to 50 nM. As to the method:
Biacore kinetic and specificity analysis: Kinetic constants (ka and kd) and affinities (KD) for hPD-L1 were determined for 14 Hiss-tagged Z variants using a Biacore 2000 instrument (GE Healthcare). Some of the Z variants were also tested for binding against the sequence-related proteins hPD-L2, hB7-H3, hB7-H4 and mPD-L1 (mouse PD-L1 Fc Chimera, R&D Systems, cat. no. 1019-B7).
hPD-L1, hPD-L2, hB7-H3, hB7-H4 and mPD-L1 were immobilized in separate flow cells on the carboxylated dextran layer of different CM5 chip surfaces (GE Healthcare, cat. no. BR100012). The immobilization was performed using amine coupling chemistry according to the manufacturer's protocol and using HBS-EP as running buffer (0.01 M HEPES pH 7.4, 0.15 M NaCl, 3 mM EDTA, 0.005% v/v Surfactant P20, GE Healthcare, cat. no. BR100188). The ligand immobilization levels on the surfaces were 468-894 RU for hPD-L1, 537-742 RU for hPD-L2, 383 RU for hB7-H3, 538-659 RU for hB7-H4 and 482 RU for mPD-L1. One flow cell surface on each chip was activated and deactivated for use as blank during analyte injections. In the kinetic experiment, HBS-EP was used as running buffer and the flow rate was 50 μl/min. The analytes, i.e. the Z variants, were each diluted in HBS-EP buffer within a concentration range of 1000 to 0.01 nM and injected for 5 min, followed by dissociation in running buffer for 15-25 min. After dissociation, the surfaces were regenerated with one or two injections of 0.1% SDS. Kinetic constants were calculated from the sensorgrams using the Langmuir 1:1 model of BiaEvaluation software 4.1 (GE Healthcare).

The EC50 is the concentration needed to bring the measured effect to its halfway point. A lower EC50 goes with greater potency. The Kd is a measure of binding affinity in units of concentration. Higher therefore signals lower affinity.

Chain of hPD-L1 (Q9NZQ7 19-290): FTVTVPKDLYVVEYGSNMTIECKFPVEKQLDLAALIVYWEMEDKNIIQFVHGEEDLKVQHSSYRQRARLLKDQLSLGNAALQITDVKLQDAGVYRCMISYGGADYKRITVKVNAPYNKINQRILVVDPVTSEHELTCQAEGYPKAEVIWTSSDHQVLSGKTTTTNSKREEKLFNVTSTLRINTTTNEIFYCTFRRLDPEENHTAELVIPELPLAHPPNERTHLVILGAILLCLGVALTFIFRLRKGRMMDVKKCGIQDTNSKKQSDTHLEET
T1 sequence (Q9NZQ7 19-239 limits assumed): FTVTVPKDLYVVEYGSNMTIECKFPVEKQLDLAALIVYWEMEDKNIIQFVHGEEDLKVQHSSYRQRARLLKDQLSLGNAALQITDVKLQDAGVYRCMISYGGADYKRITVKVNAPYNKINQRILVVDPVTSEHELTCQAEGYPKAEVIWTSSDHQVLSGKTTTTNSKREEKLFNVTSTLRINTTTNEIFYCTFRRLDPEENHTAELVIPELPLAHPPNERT

As for “Z13091: primary PD-L1 binding Z variant (VDAKYAKERNNAAFEILRLPNLTNGQHWAFIWKLADDPSQSSELLSEAKKLNDSQAPK; Engineered PD-L1 binding polypeptide)”, the IC50 with hPD-L1 binding to hPD-1 came out at 1.1e-09 M. In addition, the EC50 with hPD-L1 turned out to be 0.22 nM. For the same substance, the “SPR binding against hB7-H4” value with hB7-H4 is reported as “absence of SPR response”.
For the substance “Z13156: primary PD-L1 binding Z variant (VDAKYAKERNQAAVEILQLPNLTAAQYWAFIWKLDDDPSQSSELLSEAKKLNDSQAPK; Engineered PD-L1 binding polypeptide)”, in the assay with hB7-H4 (1000 nM Z variant injected), the “SPR response against B7-H4” value is “some response”. The Kd with hB7-H4 (Biacore, immobilized hB7-H4, response seen at 1000 nM Z variant) is over 5000 nM. Moreover, in the assay with hB7-H4, the “SPR binding against hB7-H4” value is “absence of SPR response”.
